This note sets out measurements from ChEMBL document CHEMBL4888484, “Replenishing the malaria drug discovery pipeline: Screening and hit evaluation of the MMV Hit Generation Library 1 (HGL1) against asexual blood stage Plasmodium falciparum ,using a nano luciferase reporter read-out” (2022).

SMILES strings stand for the structures. Out of some 150,000 compounds screened, about 540 (0.36%) showed an effect of 50% or more. The list shows a part of the results.

As usually defined, the % Inhibition is the relative decrease from the control value, in per cent.

The assay relates to Plasmodium falciparum. Briefly: Primary screen in NF54 nanoGlo assay, in single point, at 2uM, 72h; a lower Z score goes with more inhibition. Type of assay: functional, Erythrocyte. The following applies: timepoint 72 hour.
Regarding `Cc1ncc(CN[C@H]2CCCC[C@@H]2F)cn1`, the “% Inhibition” value was -1% and the Z score stood at 0.15.

As to `CCc1cc(C(=O)NCc2cccnc2Oc2ccc(F)c(F)c2)[nH]n1`, the “% Inhibition” value is reported as -10% and the Z score is recorded as 1.25.

Regarding `Cc1ccoc1CN(C)C(=O)c1cn2c(n1)CCC2`, the “% Inhibition” value is listed as -6% and the Z score amounted to 0.81.

As for `COc1ccc(N2CCCC2=N)c(OC)c1`, the “% Inhibition” value worked out at 0% and the Z score was determined as 0.05.

Take `Cc1ccc(-c2nnc(NC(=O)c3cnccn3)[nH]2)s1`: the “% Inhibition” value is -13% and the Z score was found to be 1.48.

`C[C@@H](CN1CCOCC1)NS(=O)(=O)C1CN(C(=O)C2CCCC2)C1`: the “% Inhibition” value was -2% and the Z score is recorded as 0.2.

Regarding `C[C@@H](Cc1cccnc1)NC(=O)c1ccc2nc(C3CC3)oc2c1`, the “% Inhibition” value is -5% and the Z score worked out at 0.87.

Turning to `C[C@@H](CS(C)(=O)=O)N(C)C(=O)c1ccc(Cl)c(Cl)c1`, the “% Inhibition” value was -7% and the Z score is recorded as 1.49.

On to `COc1ccccc1OCC(=O)N1CCC2(CC1)CC2(F)F`, for which the “% Inhibition” value was -11% and the Z score was 1.84.

Consider `O=C(Nc1nncs1)c1cc2c(s1)CCCCC2`, for which the “% Inhibition” value is -13% and the Z score is listed as 1.86.

For `CCc1cc(-c2n[nH]c(C)c2-c2cc3c(cc2C)OCCO3)c(O)cc1OC`, the “% Inhibition” value was -2% and the Z score is given as 0.29.

Turning to `Cc1cc(OCC(=O)N(C2CCCC2)[C@H]2CCS(=O)(=O)C2)ccc1Cl`, the “% Inhibition” value is recorded as 11% and the Z score is -1.42.

On to `O=C(c1ccc2ncsc2c1)N1CC[C@H](c2ccc3c(c2)CCO3)C1`, for which the “% Inhibition” value is listed as -11% and the Z score is recorded as 1.26.

Turning to `O[C@H]1C[C@H](NCc2cc(Cl)c3c(c2)OCO3)C12CCOCC2`, the “% Inhibition” value is -8% and the Z score is recorded as 1.59.

Consider `Cc1ccsc1CNC(=O)N(C)Cc1c(C)noc1C`, for which the “% Inhibition” value is reported as 0% and the Z score came out at 0.01.

Consider `O=C(NCC1OCCc2sccc21)C1CCCN1c1ncnc2ccccc12` (stereo not drawn), for which the “% Inhibition” value is recorded as -3% and the Z score amounted to 0.41.

As to `COCCN1CC(=O)N[C@H]2CN(C(=O)c3cc(CC(C)C)on3)C[C@@H]2OCc2cccc(c2)Oc2cncc(c2)C1=O`, the “% Inhibition” value is -4% and the Z score amounted to 0.7.

Consider `O=c1[nH]c(-c2cnccn2)nc2cc(F)c(Br)cc12`, for which the “% Inhibition” value is recorded as -13% and the Z score amounted to 1.81.

On to `Cc1nc(CC(=O)N[C@@H](C)CCc2ccccc2)[nH]c1Cc1ccc(O)cc1`, for which the “% Inhibition” value is given as -2% and the Z score is recorded as 0.22.

Take `COCCN1C(=O)c2cccn2C[C@@H]1CNC(=O)CCC1CCCC1`: the “% Inhibition” value is on record as -2% and the Z score worked out at 0.3.

Turning to `CC(C)c1ccc(NC(=O)c2cc3n(n2)CCN(Cc2ccc(F)cc2)C3=O)cc1`, the “% Inhibition” value was -4% and the Z score came to 0.61.

Take `Cn1nccc1-c1cnn([C@@H]2CCCCO2)c1`: the “% Inhibition” value was -7% and the Z score is on record as 1.09.

`Cc1cc(C)cc(C(=O)N2C[C@@H]3CC[C@H]2CN(C(=O)C2CCC2)C3)c1`: the “% Inhibition” value is reported as -8% and the Z score was found to be 1.34.

Consider `C=CCN(Cc1ccc(NC(C)=O)cc1)Cc1ccco1`, for which the “% Inhibition” value is -15% and the Z score came to 2.24.

For the compound `FC(F)c1cc(-c2ccco2)nc(N2CCNCC2)n1`, the “% Inhibition” value is -27% and the Z score is reported as 3.2.

On to `Nc1ncc(Cl)cc1S(=O)(=O)NCCC(F)(F)F`, for which the “% Inhibition” value amounted to 13% and the Z score is listed as -1.73.

For `CC(=O)N1CCCC1C(=O)NCC1CC2c3ccccc3C1c1ccccc12` (stereo not drawn), the “% Inhibition” value is 2% and the Z score is recorded as -0.29.

For `CCc1cc(N2CCN(C(=O)c3cnc(CC)nc3)CC2)ncn1`, the “% Inhibition” value was -18% and the Z score is recorded as 2.36.

As for `Cc1cc(C)c(-c2nc([C@H]3CCOC3)no2)c(C)c1`, the “% Inhibition” value is on record as 0% and the Z score is recorded as 0.09.

For the compound `Cc1ccc(N[C@@H](C)C(=O)NC(N)=O)c(OCC(=O)N(C)C)c1`, the “% Inhibition” value was determined as 22% and the Z score is listed as -2.79.

As to `C[C@@H](C(=O)O)c1cccc(NC(=O)c2ccc3c(c2)CCOC3)c1`, the “% Inhibition” value came to 4% and the Z score is given as -0.71.

As to `c1ccc(Cn2ccnc2[C@H]2CCCN(c3ncnc4c3CCC4)C2)cc1`, the “% Inhibition” value is -2% and the Z score is listed as 0.38.

As for `Cn1cnnc1C[C@H]1CCCN(S(=O)(=O)c2cccc3nsnc23)C1`, the “% Inhibition” value is listed as -14% and the Z score came to 1.82.

Turning to `C[C@@H](C(=O)Nc1ccc2c(c1)OCCO2)N1CCN(Cc2ccc(OC(F)(F)F)cc2)CC1`, the “% Inhibition” value was -11% and the Z score was found to be 1.91.

For the compound `CCNc1ncc(C(=O)N2[C@@H]3CC[C@H]2C[C@@H](c2ccc(F)c(C)c2)C3)cn1`, the “% Inhibition” value is -13% and the Z score came out at 2.17.

Turning to `CC(=O)N[C@@H](CC(C)C)C(=O)N1CCN(Cc2cccc(-c3noc(CC(C)C)n3)c2)CC1`, the “% Inhibition” value was -7% and the Z score came to 0.69.

Turning to `Cc1cc(C)nc([C@@H](C#N)C(=O)c2ccnc(OCC(F)F)c2)n1`, the “% Inhibition” value is given as 32% and the Z score is -4.26.

Take `Cc1c(F)cccc1C(=O)N[C@H]1[C@@H]2CCO[C@@H]2[C@@H]1C1CCCC1`: the “% Inhibition” value is -8% and the Z score came out at 0.83.

With `O=S(=O)(Cc1noc(C[C@@H]2C[C@H]2c2ccccc2)n1)NC1CC1`, the “% Inhibition” value was 2% and the Z score is on record as -0.24.

As for `Cn1nc2n(c1=O)C[C@@H](C(=O)N(Cc1ccccn1)C1CCCCC1)CC2`, the “% Inhibition” value is listed as 0% and the Z score was 0.1.

As to `CN(CCOc1ccccc1Cl)CC(=O)N(C)Cc1ccco1`, the “% Inhibition” value is -9% and the Z score turned out to be 1.72.

Regarding `Cc1cnn(-c2cc(-c3cnn(CC(=O)Nc4cc(C)nn4C)c3)ncn2)c1`, the “% Inhibition” value is -8% and the Z score amounted to 1.46.

Consider `COCCc1ncc(-c2c(-c3ccccc3)ncn2CC2=CCCCC2)cn1`, for which the “% Inhibition” value is reported as -13% and the Z score was 1.27.

Consider `CCCNC(=O)C1CCN(C(=O)[C@@H]2COC(=O)N2)CC1`, for which the “% Inhibition” value was -44% and the Z score is recorded as 5.19.

With `O=C1C[C@H]2CC[C@@H](CN1)N2Cc1cccc(OCCO)c1`, the “% Inhibition” value is -14% and the Z score was found to be 2.7.

Take `CCc1nn(C)cc1NC(=O)NC[C@H]1CN(C)C[C@@H]1c1ccccc1`: the “% Inhibition” value was determined as 4% and the Z score is listed as -0.61.

As for `O=C(Nc1ccncc1)c1cc2c(F)cccc2s1`, the “% Inhibition” value is -11% and the Z score came out at 1.17.

As for `OCCCn1nc(C2(c3ccccc3)CC2)nc1CC1CCCC1`, the “% Inhibition” value is given as 0% and the Z score is reported as -0.05.

Take `Cc1nc(CNC(=O)CC#N)sc1C`: the “% Inhibition” value turned out to be 9% and the Z score is reported as -1.22.

Turning to `CCN(CCC#N)S(=O)(=O)N1CCN(c2cccs2)C(=O)C1`, the “% Inhibition” value is given as -2% and the Z score turned out to be 0.42.

Regarding `Cc1noc(C)c1[C@H](C)NS(=O)(=O)c1c(F)cccc1Cl`, the “% Inhibition” value is -15% and the Z score turned out to be 1.29.

In the case of `Cc1cc(C(C)NC(=O)CNCC2CCCO2)cc(C)c1F` (stereo not drawn), the “% Inhibition” value was found to be 0% and the Z score was 0.03.

On to `CCn1nc(C(=O)N2CC[C@H]2C2CCCC2)c(=O)c2ccccc21`, for which the “% Inhibition” value is reported as -11% and the Z score is 1.54.

`CC(C)CCC(C)(O)CNC(=O)C1CC1C` (stereo not drawn): the “% Inhibition” value came out at 0% and the Z score is listed as 0.05.
